Our source for the binding signal values is article PMC7819943, “Rice protein-binding microarrays: a tool to detect cis-acting elements near promoter regions in rice”.

The list shows a part of the results.

The target in this assay is T1, OsWOX13 (Oryza sativa, UniProt Q5QMM3 1-267).
T1 sequence: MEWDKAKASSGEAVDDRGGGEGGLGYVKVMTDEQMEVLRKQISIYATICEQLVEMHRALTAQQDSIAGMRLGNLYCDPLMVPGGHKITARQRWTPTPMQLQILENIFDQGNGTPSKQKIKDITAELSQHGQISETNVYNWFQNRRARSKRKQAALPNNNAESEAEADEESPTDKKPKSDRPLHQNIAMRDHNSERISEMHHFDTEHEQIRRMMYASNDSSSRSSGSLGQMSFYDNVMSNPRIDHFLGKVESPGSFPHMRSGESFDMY
In words: protein-binding microarray (RPBM); PBS, 2% BSA, 51.3 ng/ul salmon testes DNA, 50 uM zinc acetate, 200 nM TF, 25 C, 1 h; high values mean tight binding. As to conditions: protein: recombinant; tags: N-terminal polyhistidine and DsRed monomer fusion (pET32a); label: CyDye5-dUTP incorporated in the synthesized complementary strand; 3' TTTTT single-stranded linker to array surface; dsDNA, one strand shown. The gist of the method: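 The binding signal is fluorescence intensity per array feature (arbitrary units). Readings came from an Axon 4000B scanner after a washed, 2% BSA-blocked, double-stranded custom Agilent array had been incubated for 1 h at 25 °C with 200 nM protein and 50 µM zinc acetate. The protein was a Ni–NTA-purified transcription factor fused N-terminally to polyhistidine and DsRed, expressed in E. coli BL21-CodonPlus.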
Regarding “TAAAATTAACGTGGACACTAATCTAGTTTAGACTTTGATTCGGAGTCACCTAGTGCAG”, the binding signal was 15500 fluorescence intensity (a.u.).

On to “CGTATGAACAAATTTGCATCCATTATCTTTGCCTGCACACCGGAGTCACCTAGTGCAG”, for which the binding signal is 3860 fluorescence intensity (a.u.).

Take “ACTAATTATTGTTTATTGGGATCAAAGTGCCCGCACTATCCGGAGTCACCTAGTGCAG”: the binding signal is 30700 fluorescence intensity (a.u.).

Take “TTTAACTGCCAATTTGCCTGAATGATTTGCAGATGAGGAACGGAGTCACCTAGTGCAG”: the binding signal was 41700 fluorescence intensity (a.u.).

As for “TTAATCAGAATTATCGTCTGTCAAGATAATATATTATAAGCGGAGTCACCTAGTGCAG”, the binding signal was 3430 fluorescence intensity (a.u.).

“TATGACAGGTGGGATTAGGTATTAATAGTGTAGTATGTAACGGAGTCACCTAGTGCAG”: the binding signal was 8510 fluorescence intensity (a.u.).

Regarding “GGCGACAAGACAGATAGACAGAAGCCATTCATATCGAACCCGGAGTCACCTAGTGCAG”, the binding signal is 5190 fluorescence intensity (a.u.).

In the case of “CGCAACAAAGCAATCAAATACTACTACGCGATATGAGAGACGGAGTCACCTAGTGCAG”, the binding signal was 3460 fluorescence intensity (a.u.).

For “ATAACCGCCCTAATTTACTTTAGCATACGTGGAGTACAAGCGGAGTCACCTAGTGCAG”, the binding signal is 3710 fluorescence intensity (a.u.).

Turning to “ATTTGTATAATTGGAACCATGCCATTCCAACACAACAAAACGGAGTCACCTAGTGCAG”, the binding signal was 6320 fluorescence intensity (a.u.).

Turning to “CTTGGCATTGATTGTAAGCTGGTATCGAACTCTTCAGTAACGGAGTCACCTAGTGCAG”, the binding signal was 16200 fluorescence intensity (a.u.).

As for “ATATTTTGTAAATTATAATAACTATTTATGTGTCCTCTCACGGAGTCACCTAGTGCAG”, the binding signal was 4080 fluorescence intensity (a.u.).

“CATTGTGTGAAATTATTGTAATTGTAGAATAAGAGAATCACGGAGTCACCTAGTGCAG”: the binding signal is 3330 fluorescence intensity (a.u.).

As for “CCTTCCTAAATTATCTGGCGATATATTGTGCGCACTGACTCGGAGTCACCTAGTGCAG”, the binding signal was 4880 fluorescence intensity (a.u.).

Turning to “TAGCTTAATTAATTGGTATGCAATCCATGCCTCTCTGCAGCGGAGTCACCTAGTGCAG”, the binding signal was 40800 fluorescence intensity (a.u.).

As for “GGTATGCATTGGAAACTTTTGATTGAGAGCACTGTTGCCTCGGAGTCACCTAGTGCAG”, the binding signal is 9620 fluorescence intensity (a.u.).

With “ATGCGTGATTACGTACAGGAGGGAGATTCGTACGTACGCGCGGAGTCACCTAGTGCAG”, the binding signal was 12200 fluorescence intensity (a.u.).

For “ATATAGATTTACGTTGGATTTATACTGATTCTAACCAAATCGGAGTCACCTAGTGCAG”, the binding signal was 13600 fluorescence intensity (a.u.).

Turning to “CGCGTAATTTGGCTATAAATCCGCCGCGGATTTCCTTCCTCGGAGTCACCTAGTGCAG”, the binding signal was 15100 fluorescence intensity (a.u.).

For the sequence “ATTGATCTAATTGAAGTTGCTTGGACTTATGAACAACTTTCGGAGTCACCTAGTGCAG”, the binding signal was 20100 fluorescence intensity (a.u.).

On to “GGCTAAATTTTGCCCCAGCATTGACAAGTGACAACTCCCCCGGAGTCACCTAGTGCAG”, for which the binding signal was 6210 fluorescence intensity (a.u.).

For the sequence “GGGTGCAATTAATTAATCATCTATCTATATTTTGCTCAAACGGAGTCACCTAGTGCAG”, the binding signal was 29500 fluorescence intensity (a.u.).

Take “CTAATTACACAGATTGTGACTAATTTGTGAGACGAATCTTCGGAGTCACCTAGTGCAG”: the binding signal was 37900 fluorescence intensity (a.u.).

Regarding “GATCAAATTAATAGGTAACCCGCTGGTCAAACCTATGGGTCGGAGTCACCTAGTGCAG”, the binding signal was 18000 fluorescence intensity (a.u.).

As for “AGCGTGACTGCAATTTAAAACGATTAAAATAACATTCAACCGGAGTCACCTAGTGCAG”, the binding signal is 11800 fluorescence intensity (a.u.).

On to “GCAATTAACTCACTCTGCTTTAGCTGATTAAGTTGGTCGTCGGAGTCACCTAGTGCAG”, for which the binding signal is 5290 fluorescence intensity (a.u.).

Regarding “GCCATTGACAGCGTTGACCAAGTCAGCCGCTCCAGCCTCTCGGAGTCACCTAGTGCAG”, the binding signal was 5360 fluorescence intensity (a.u.).

With “AATCGACTGATGGATTAAAATTTGGGATCACCTGTATATTCGGAGTCACCTAGTGCAG”, the binding signal is 8420 fluorescence intensity (a.u.).

Take “TAATCGTTACAAATTTCAGTGATTGCCCTGAGCGTATTAACGGAGTCACCTAGTGCAG”: the binding signal is 6610 fluorescence intensity (a.u.).

Regarding “ATTTCCCAATTAATGAGTCTTAGTCCATGGGTATAGACAACGGAGTCACCTAGTGCAG”, the binding signal is 5860 fluorescence intensity (a.u.).

Turning to “AAAATGATAGGATTTTCACATATTTACTCTCTTAAATCTGCGGAGTCACCTAGTGCAG”, the binding signal is 5010 fluorescence intensity (a.u.).

With “GCTGTCTTGCTGATTGATATGCATACGGCGCCGGAGATGACGGAGTCACCTAGTGCAG”, the binding signal was 14200 fluorescence intensity (a.u.).

For “TGCTTTTCATGTTTATTGATTTAGGCGCACCTGTTCTGTTCGGAGTCACCTAGTGCAG”, the binding signal was 3190 fluorescence intensity (a.u.).

On to “TTAAATGTTGACGTTTGATGAGACAAGTAGTACTATATAGCGGAGTCACCTAGTGCAG”, for which the binding signal was 3900 fluorescence intensity (a.u.).

Turning to “ATAAATTAACTCCACACCTCCTCCTTTATCTTCAAATCTCCGGAGTCACCTAGTGCAG”, the binding signal is 7860 fluorescence intensity (a.u.).

Consider “GGTGAAATGAAGGGATAATTAATTGAGAGAAAATTAAGCACGGAGTCACCTAGTGCAG”, for which the binding signal was 21300 fluorescence intensity (a.u.).

On to “TCTTAATGACATAGGGGTAAAAGACTCTAATAAATTTGTCCGGAGTCACCTAGTGCAG”, for which the binding signal is 6870 fluorescence intensity (a.u.).

Take “CCCAGTCTATCCATCCAATTAACCAACTTAACGACCATTGCGGAGTCACCTAGTGCAG”: the binding signal was 12100 fluorescence intensity (a.u.).

For the sequence “CTGTAGATGAAAATCAAATTGAGACACCTAAAGTGAACCTCGGAGTCACCTAGTGCAG”, the binding signal is 4470 fluorescence intensity (a.u.).

For the sequence “TATAAACAATTAACCTATATATCTAAGTGCTGATTTAACCCGGAGTCACCTAGTGCAG”, the binding signal is 3960 fluorescence intensity (a.u.).

As for “AAAGATTAAAGTTTAGTCCATAAATGCAAACATTGACACCCGGAGTCACCTAGTGCAG”, the binding signal is 3880 fluorescence intensity (a.u.).

As for “CACCAATTAACTTAGCCACTTATGATTCACAAAGATAAGACGGAGTCACCTAGTGCAG”, the binding signal was 8860 fluorescence intensity (a.u.).
